# In all, about 270,000 compounds went through this assay and about 620 (0.23%) were called active. Inconclusive results, whose numbers are uncertain, are shown with a selection of clear calls. The call rests on the fitted dose curve; in most records, active means well fitted inhibition curve with a large enough effect in the polarisation, with a control signal flat (not every such curve was filed as active); inconclusive means small, poorly fitted or top-dose-only effect, or effect the other way, or a change in a side signal; inactive means no such curve, though single readings can be large or run the other way; the % refers to the polarisation. Where the call is inconclusive, the potency comes from a doubtful curve fit. A note “side channel” means that the fit belongs to a control or component signal, not to the main read-out.
# Target: Menin (Homo sapiens) (UniProt O00255)
# Assay: qHTS Assay for Inhibitors Targeting the Menin-MLL Interaction in MLL Related Leukemias: Competition With Texas Red Labeled MLL-derived Mutant Peptide
# Settings: fluorescence polarization; series mostly up to 61.6 µM
# Potency means the concentration at half of the fitted maximal effect; tags describe the fitted curve by direction and shape or compound fluorescence and quenching.
# Sequence of UniProt O00255 (O00255 whole entry, looked up): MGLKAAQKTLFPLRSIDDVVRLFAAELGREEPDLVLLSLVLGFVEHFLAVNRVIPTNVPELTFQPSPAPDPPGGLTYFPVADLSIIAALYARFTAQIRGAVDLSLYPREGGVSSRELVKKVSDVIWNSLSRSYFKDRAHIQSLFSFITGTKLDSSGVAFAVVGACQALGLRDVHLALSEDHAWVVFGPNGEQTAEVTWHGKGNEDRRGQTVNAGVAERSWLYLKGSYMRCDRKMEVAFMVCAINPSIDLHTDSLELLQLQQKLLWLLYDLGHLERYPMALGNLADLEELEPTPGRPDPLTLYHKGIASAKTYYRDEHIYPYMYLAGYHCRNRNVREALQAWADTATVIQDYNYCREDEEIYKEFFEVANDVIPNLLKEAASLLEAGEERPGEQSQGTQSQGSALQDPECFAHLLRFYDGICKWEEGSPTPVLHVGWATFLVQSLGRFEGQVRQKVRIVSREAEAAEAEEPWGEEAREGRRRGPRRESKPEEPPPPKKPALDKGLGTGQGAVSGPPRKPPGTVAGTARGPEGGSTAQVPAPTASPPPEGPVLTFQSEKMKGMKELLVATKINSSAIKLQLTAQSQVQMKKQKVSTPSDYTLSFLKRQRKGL
row,Structure (SMILES),Potency
1,CC(C)c1ccc2oc(-c3ccc(N)cc3)nc2c1,"inconclusive: 17.8 µM [quencher, side channel, partial curve]"
2,COc1ccc(OC)c(Cc2nnc(CCC(=O)N3CCCCC3c3nccs3)o2)c1 (stereo unspecified),"inconclusive: 7.94 µM [inhibitor, full curve, poor fit]"
3,Cc1ccc(N=C2NC(=O)/C(=C/C=C/c3ccco3)S2)cc1C,"inconclusive: 14.1 µM [quencher, side channel, partial curve]"
4,O=C(CSc1nnc(-c2ccc3c(c2)OCO3)o1)Nc1ncc(C(F)(F)F)cc1Cl,"inconclusive: 22.4 µM [quencher, side channel, partial curve]"
5,O=C(NCCc1ccc(Cl)cc1Cl)c1cc([N+](=O)[O-])c[nH]c1=O,"inconclusive: 35.5 µM [quencher, side channel, single point]"
6,COC(=O)C1=C(C(=O)OC)[C@@H]2N(C)c3ccccc3[C@@]23C[C@@H](CO)N(C(=O)c2cc(C)oc2C)C3=N1,"inconclusive: 7.08 µM [fluorescent, side channel, single point]"
7,CCOc1ccc(-c2nc(CN(Cc3ccccc3)C[C@@H]3CCC(=O)N3)c(C)o2)cc1,"inconclusive: 1.12 µM [fluorescent, side channel, full curve]"
8,CN(C)c1nc2c(Br)c(Br)c(Br)c(Br)c2[nH]1,"inconclusive: 12.6 µM [quencher, side channel, partial curve]"
9,COc1ccc(CC2S/C(=N/N=C/c3ccc(O)cc3)NC2=O)cc1 (stereo unspecified),"inconclusive: 25.1 µM [inhibitor, single point]"
10,O=C(Nc1nc2c(s1)CN(Cc1ccccc1)CC2)c1cccc(S(=O)(=O)N2CCc3ccccc32)c1,active: 7.08 µM
11,Nc1nn(S(=O)(=O)c2ccccc2)cc1-c1ccc([N+](=O)[O-])cc1,"inconclusive: 17.8 µM [quencher, side channel, partial curve]"
12,S=C=Nc1cccc(NC(=S)NCCCCNC(=S)Nc2cccc(N=C=S)c2)c1,"inconclusive: 14.1 µM [inhibitor, partial curve]"
13,COc1cccc(C(=O)/C=C/Nc2ccc(S(=O)(=O)Nc3cnc4ccccc4n3)cc2)c1,"inconclusive: 10 µM [quencher, side channel, partial curve]"
14,Cc1cccc(C)c1OCC(O)Cn1c2ccccc2c2ccccc21 (stereo unspecified),"inconclusive: 39.8 µM [quencher, side channel, single point]"
15,CC[C@H]1[C@@H]2C=C[C@@H]3[C@H]4C/C=C\C(=O)NCCC[C@@H]5NC(=O)C(=C5O)C(=O)CC[C@@H]4C[C@@H]3[C@H]2C[C@H]1C,inactive
16,COc1cc(C(=O)NCc2cccc3ccccc23)cc(Cl)c1OC,inactive
17,CCSc1nnc(NC(=O)CSc2sc3c(O)cc(=O)[nH]c3c2C#N)s1,"inconclusive: 31.6 µM [quencher, single point]"
18,O=C(CCn1c2c(c3ccccc31)CCCC2)NNC(=O)c1ccc(Cl)c([N+](=O)[O-])c1,"inconclusive: 25.1 µM [quencher, side channel, single point]"

row,Structure (SMILES),Potency
1,O=C(Cc1nc2ccccc2[nH]c1=O)c1ccccc1,"inconclusive: 12.6 µM [quencher, side channel, partial curve]"
2,Cc1ccc2cc(C#N)c(NCCCNC(=O)C3CCCO3)nc2c1 (stereo unspecified),"inconclusive: 39.8 µM [inhibitor, single point]"
3,CCCOc1ccc(-c2csc3ncn(Cc4ccc(C(=O)O)cc4)c(=O)c23)cc1,"inconclusive: 12.6 µM [quencher, side channel, partial curve]"
4,COc1cc(C(c2sc3nc(C)nn3c2O)N2CCN(c3ccccc3)CC2)cc(OC)c1OC (stereo unspecified),"inconclusive: 22.4 µM [fluorescent, side channel, single point]"
5,C[C@@H](C(=O)Nc1ccc2ccccc2c1)[C@@H]1C[C@@]1(C)[C@@H](NC(=O)c1ccccc1)c1ccccc1,"inconclusive: 39.8 µM [inhibitor, single point]"
6,CCc1ccc(OCC(=O)NC(NC(=S)Nc2ccc(Cl)cc2)C(Cl)(Cl)Cl)cc1 (stereo unspecified),"inconclusive: 39.8 µM [inhibitor, single point]"
7,N#Cc1ccc(Oc2ccc(-c3cnc4ccccc4n3)cc2)cc1C#N,inactive
8,O=C(CCCn1cnc([N+](=O)[O-])n1)Nc1cc(Cl)ccc1O,inactive
9,CN1CCN(c2ccc(NC(=S)NC(=O)/C=C/c3ccco3)cc2)CC1,"inconclusive: 6.31 µM [inhibitor, partial curve]"
10,c1ccc(-c2nn3c(-c4ccco4)nnc3s2)nc1,"inconclusive: 25.1 µM [inhibitor, single point]"
11,CCCCOC(=O)c1ccc(NC(=O)/C=C/c2cccs2)cc1,"inconclusive: 14.1 µM [quencher, side channel, partial curve]"
12,COc1ccc(NC(=O)c2cccs2)cc1O,"inconclusive: 39.8 µM [quencher, side channel, single point]"
13,Cc1cc(=O)oc2c3c(cc(OCC(=O)NC(C)C)c12)OC(C)(C)CC3,"inconclusive: 17.8 µM [fluorescent, side channel, partial curve]"
14,COC(=O)c1ccc(C2Nc3ccc(/C(C)=N/NC(=O)C(OC)c4ccccc4)cc3C3C=CCC32)cc1 (stereo unspecified),"inconclusive: 14.1 µM [quencher, partial curve]"
15,CC(=O)N(c1ccc(N(C(C)=O)S(=O)(=O)c2cccs2)cc1)S(=O)(=O)c1cccs1,inactive
16,O=C(Cc1cccs1)N1CCN(S(=O)(=O)c2ccccc2)CC1,inactive
17,N#Cc1ccc2[nH]c(CO)c(-c3ccccc3)c2c1,"inconclusive: 35.5 µM [quencher, side channel, single point]"
18,CCO[C@@H]1OC(C(=O)N2CCN(Cc3ccc4c(c3)OCO4)CC2)=C[C@H](c2ccc(C(F)(F)F)cc2)[C@H]1CCCO,"inconclusive: 8.91 µM [fluorescent, side channel, partial curve]"

# Reference: PubChem BioAssay AID1768 (National Center for Advancing Translational Sciences (NCATS), 2009)
